The list shows a part of the results.
Assays:
Assay in all cases: glycan array binding signal (z-score within array); higher = stronger binding
Conditions in all cases: glycan notation: IUPAC condensed, linker removed
[1] = molecular target: Man(a1-2)Man(a1-2)Man(a1-3)[Man(a1-2)Man(a1-6)[Man(a1-3)]Man(a1-6)]Man(b1-4)GlcNAc(b1-4)GlcNAc
Summary of the method: (§1)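 Negative Z-scores can be read as non-binding. The Z-score is calculated within each array and then averaged across arrays of one protein sequence at different concentrations or buffers and across linkers. Arrays, 3228 in all, were curated from the Consortium for Functional Glycomics database and kept only where the protein sequence was available.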

[2] = molecular target: Man(a1-2)Man(a1-2)Man(a1-6)[Man(a1-3)]Man
Summary of the method: as §1

Man(a1-2)Man(a1-3)Man = molecular target: Man(a1-2)Man(a1-3)Man
Summary of the method: as §1

[3] = molecular target: Man(a1-2)Man(a1-3)[Man(a1-2)Man(a1-6)]Man
Summary of the method: as §1

[4] = molecular target: Man(a1-2)Man(a1-3)[Man(a1-2)Man(a1-6)]Man(a1-6)[Man(a1-2)Man(a1-2)Man(a1-3)]Man
Summary of the method: as §1

[5] = molecular target: Man(a1-2)Man(a1-3)[Man(a1-2)Man(a1-6)]Man(a1-6)[Man(a1-2)Man(a1-2)Man(a1-3)]Man(b1-4)GlcNAc(b1-4)GlcNAc
Summary of the method: as §1

[6] = molecular target: Man(a1-2)Man(a1-3)[Man(a1-3)[Man(a1-6)]Man(a1-6)]Man(b1-4)GlcNAc(b1-4)GlcNAc
Summary of the method: as §1

[7] = molecular target: Man(a1-2)Man(a1-3)[Man(a1-6)]Man(a1-6)[Man(a1-2)Man(a1-3)]Man(b1-4)GlcNAc(b1-4)GlcNAc
Summary of the method: as §1

[8] = molecular target: Man(a1-2)Man(a1-6)[Man(a1-3)]Man(a1-6)[Man(a1-2)Man(a1-2)Man(a1-3)]Man
Summary of the method: as §1

[9] = molecular target: Man(a1-2)Man(a1-6)[Man(a1-3)]Man(a1-6)[Man(a1-2)Man(a1-2)Man(a1-3)]Man(b1-4)GlcNAc(b1-4)GlcNAc
Summary of the method: as §1

Man(a1-3)[Man(a1-6)]Man = molecular target: Man(a1-3)[Man(a1-6)]Man
Summary of the method: as §1

[10] = molecular target: Man(a1-3)[Man(a1-6)]Man(a1-6)[Man(a1-2)Man(a1-3)]Man(b1-4)GlcNAc(b1-4)GlcNAc
Summary of the method: as §1

[11] = molecular target: Man(a1-3)[Man(a1-6)]Man(a1-6)[Man(a1-3)]Man
Summary of the method: as §1

[12] = molecular target: Man(a1-3)[Man(a1-6)]Man(a1-6)[Man(a1-3)]Man(b1-4)GlcNAc(b1-4)GlcNAc
Summary of the method: as §1

[13] = molecular target: Man(a1-3)[Man(a1-6)]Man(b1-4)GlcNAc(b1-4)GlcNAc
Summary of the method: as §1

Man(a1-6)Man = molecular target: Man(a1-6)Man
Summary of the method: as §1

Man(b1-4)GlcNAc = molecular target: Man(b1-4)GlcNAc
Summary of the method: as §1

Neu5Ac(a2-3)Gal = molecular target: Neu5Ac(a2-3)Gal
Summary of the method: as §1

[14] = molecular target: Neu5Ac(a2-3)Gal(b1-3)GalNAc
Summary of the method: as §1

[15] = molecular target: Neu5Ac(a2-3)Gal(b1-3)GalNAc(b1-3)Gal(a1-4)Gal(b1-4)Glc
Summary of the method: as §1

[16] = molecular target: Neu5Ac(a2-3)Gal(b1-3)GalNAc(b1-3)Gal(b1-4)GlcNAc
Summary of the method: as §1

[17] = molecular target: Neu5Ac(a2-3)Gal(b1-3)GalNAc(b1-4)[Neu5Ac(a2-3)]Gal(b1-4)Glc
Summary of the method: as §1

[18] = molecular target: Neu5Ac(a2-3)Gal(b1-3)GalNAc6S
Summary of the method: as §1

[19] = molecular target: Neu5Ac(a2-3)Gal(b1-3)GlcNAc
Summary of the method: as §1

[20] = molecular target: Neu5Ac(a2-3)Gal(b1-3)GlcNAc(b1-3)Gal(b1-3)GlcNAc
Summary of the method: as §1

[21] = molecular target: Neu5Ac(a2-3)Gal(b1-3)GlcNAc(b1-3)Gal(b1-4)GlcNAc
Summary of the method: as §1

[22] = molecular target: Neu5Ac(a2-3)Gal(b1-3)GlcNAc6S
Summary of the method: as §1

[23] = molecular target: Neu5Ac(a2-3)Gal(b1-3)[Fuc(a1-4)]GlcNAc
Summary of the method: as §1

[24] = molecular target: Neu5Ac(a2-3)Gal(b1-3)[Fuc(a1-4)]GlcNAc(b1-3)Gal(b1-4)[Fuc(a1-3)]GlcNAc
Summary of the method: as §1

[25] = molecular target: Neu5Ac(a2-3)Gal(b1-3)[Neu5Ac(a2-3)Gal(b1-4)]GlcNAc
Summary of the method: as §1

[26] = molecular target: Neu5Ac(a2-3)Gal(b1-3)[Neu5Ac(a2-6)]GalNAc
Summary of the method: as §1

Neu5Ac(a2-3)Gal(b1-4)Glc = molecular target: Neu5Ac(a2-3)Gal(b1-4)Glc
Summary of the method: as §1

[27] = molecular target: Neu5Ac(a2-3)Gal(b1-4)GlcNAc
Summary of the method: as §1

[28] = molecular target: Neu5Ac(a2-3)Gal(b1-4)GlcNAc(b1-2)Man(a1-3)[GlcNAc(b1-2)Man(b1-4)GlcNAc(b1-2)Man(a1-6)]Man(b1-4)GlcNAc(b1-4)GlcNAc
Summary of the method: as §1

[29] = molecular target: Neu5Ac(a2-3)Gal(b1-4)GlcNAc(b1-2)Man(a1-3)[Neu5Ac(a2-3)Gal(b1-4)GlcNAc(b1-2)Man(a1-6)]Man(b1-4)GlcNAc(b1-4)GlcNAc
Summary of the method: as §1

[30] = molecular target: Neu5Ac(a2-3)Gal(b1-4)GlcNAc(b1-2)Man(a1-3)[Neu5Ac(a2-6)Gal(b1-4)GlcNAc(b1-2)Man(a1-6)]Man(b1-4)GlcNAc(b1-4)GlcNAc
Summary of the method: as §1

[31] = molecular target: Neu5Ac(a2-3)Gal(b1-4)GlcNAc(b1-3)Gal(b1-3)GlcNAc
Summary of the method: as §1

[32] = molecular target: Neu5Ac(a2-3)Gal(b1-4)GlcNAc(b1-3)Gal(b1-4)GlcNAc
Summary of the method: as §1

[33] = molecular target: Neu5Ac(a2-3)Gal(b1-4)GlcNAc(b1-3)Gal(b1-4)GlcNAc(b1-3)Gal(b1-4)GlcNAc
Summary of the method: as §1

[34] = molecular target: Neu5Ac(a2-3)Gal(b1-4)GlcNAc(b1-3)Gal(b1-4)[Fuc(a1-3)]GlcNAc
Summary of the method: as §1

[35] = molecular target: Neu5Ac(a2-3)Gal(b1-4)GlcNAc(b1-6)[Gal(b1-3)]GalNAc
Summary of the method: as §1

[36] = molecular target: Neu5Ac(a2-3)Gal(b1-4)GlcNAc(b1-6)[Neu5Ac(a2-3)Gal(b1-3)]GalNAc
Summary of the method: as §1

[37] = molecular target: Neu5Ac(a2-3)Gal(b1-4)GlcNAc6S
Summary of the method: as §1

[38] = molecular target: Neu5Ac(a2-3)Gal(b1-4)[Fuc(a1-3)]GlcNAc
Summary of the method: as §1

[39] = molecular target: Neu5Ac(a2-3)Gal(b1-4)[Fuc(a1-3)]GlcNAc(b1-3)Gal
Summary of the method: as §1

B1: NcCVNHO (Neurospora crassa), Q7S6U4 (protein)
chain: MSFHVTAEDARIEVRDNRTILFARLRREDGEWNDASYELDQIIGNNDGHFQWGGQNFTETAEDIRFHPKEGAAEQPILRARLRDCNGEFHDRDVNLTEIVENVNGEFQAKF
[1]
  glycan array binding signal (z-score): 1.35
[2]
  glycan array binding signal (z-score): 4.66
Man(a1-2)Man(a1-3)Man
  glycan array binding signal (z-score): -0.116
[3]
  glycan array binding signal (z-score): 4.86
[4]
  glycan array binding signal (z-score): 0.786
[5]
  glycan array binding signal (z-score): 2.38
[6]
  glycan array binding signal (z-score): 0.23
[7]
  glycan array binding signal (z-score): -0.089
[8]
  glycan array binding signal (z-score): -0.195
[9]
  glycan array binding signal (z-score): 1.47
Man(a1-3)[Man(a1-6)]Man
  glycan array binding signal (z-score): -0.219
[10]
  glycan array binding signal (z-score): -0.23
[11]
  glycan array binding signal (z-score): -0.178
[12]
  glycan array binding signal (z-score): -0.178
[13]
  glycan array binding signal (z-score): -0.208
Man(a1-6)Man
  glycan array binding signal (z-score): -0.194
Man(b1-4)GlcNAc
  glycan array binding signal (z-score): -0.233
Neu5Ac(a2-3)Gal
  glycan array binding signal (z-score): -0.234
[14]
  glycan array binding signal (z-score): -0.214
[15]
  glycan array binding signal (z-score): -0.21
[16]
  glycan array binding signal (z-score): -0.264
[17]
  glycan array binding signal (z-score): -0.244
[18]
  glycan array binding signal (z-score): -0.226
[19]
  glycan array binding signal (z-score): -0.217
[20]
  glycan array binding signal (z-score): -0.176
[21]
  glycan array binding signal (z-score): -0.183
[22]
  glycan array binding signal (z-score): -0.232
[23]
  glycan array binding signal (z-score): -0.242
[24]
  glycan array binding signal (z-score): 0.291
[25]
  glycan array binding signal (z-score): -0.067
[26]
  glycan array binding signal (z-score): -0.196
Neu5Ac(a2-3)Gal(b1-4)Glc
  glycan array binding signal (z-score): 0.907
[27]
  glycan array binding signal (z-score): -0.24
[28]
  glycan array binding signal (z-score): -0.182
[29]
  glycan array binding signal (z-score): -0.299
[30]
  glycan array binding signal (z-score): -0.143
[31]
  glycan array binding signal (z-score): -0.127
[32]
  glycan array binding signal (z-score): -0.237
[33]
  glycan array binding signal (z-score): -0.227
[34]
  glycan array binding signal (z-score): -0.212
[35]
  glycan array binding signal (z-score): -0.173
[36]
  glycan array binding signal (z-score): -0.195
[37]
  glycan array binding signal (z-score): -0.186
[38]
  glycan array binding signal (z-score): -0.227
[39]
  glycan array binding signal (z-score): -0.241

Source: the supplement of paper PMC8728848
